# According to ChEMBL document CHEMBL1156829:
# In all, about 5,400 compounds were measured (“IFI”: median about 2, highest 2% from about 22 on). The list shows a part of the results.
# Experiment: NOVARTIS: Inhibition Frequency Index (IFI) - the number of HTS assays where a compound showed > 50% inhibition/induction, expressed as a percentage of the number of assays in which the compound was tested.
# Type: functional
row,SMILES,IFI [%]
1,CC1=NOC(=O)/C1=C/c1ccc(-c2ccc([N+](=O)[O-])cc2)o1,0
2,CCSc1ccc2ccccc2[n+]1CC,0.746
3,Cc1cc(=O)n(-c2nc(-c3ccccc3O)nc3ccccc23)[nH]1,0
4,Cc1sc2ncn(CC(=O)N(C)Cc3ccccc3)c(=O)c2c1S(=O)(=O)N1CCOCC1,0
5,Cc1ccccc1N1C(=O)N(c2ccccc2)C2CS(=O)(=O)CC21 (stereo not given),4.76
6,CCOC(=O)c1c(NC(=O)CSc2nnc(CNC(=O)c3cccc(OC)c3)n2C2CCCCC2)sc2c1CCCC2,0
7,COc1cccc(C(=O)Oc2ccccc2-c2nc3ccccn3c2NC(C)(C)CC(C)(C)C)c1,5.56
8,CN1CCCC1CCNc1ncc(C(=O)NCc2ccccc2)c(NCC2CCCCC2)n1 (stereo not given),3.88
9,Oc1ccc(Nc2nc(NCc3ccco3)c3ccccc3n2)cc1,0
10,COc1cccc(C(=O)NC(c2ccccc2OC)c2cc(Cl)c3cccnc3c2O)c1 (stereo not given),0
11,CCOC(=O)c1ccc(NC(=O)c2cc(-c3ccccc3)nc3ccc(C)cc23)cc1,3.49
12,Cc1cc(Cl)ccc1NC(=O)c1ccccc1[N+](=O)[O-],0.82
13,O=[N+]([O-])c1ccc(-n2cccc2C=NNc2ncnc3sc4c(c23)CCCC4)cc1,0
14,COc1cc(NC(C)CCCN(Cc2ccc(F)cc2)C(=O)c2ccccc2F)c2ncccc2c1 (stereo not given),2.15
15,CCCCCC(=O)N1c2ccccc2N=C2CC(c3ccc(OC)c(OC)c3)CC(O)=C2C1c1ccc(C(F)(F)F)cc1 (stereo not given),3.37
16,OCCNc1nc(Nc2ccc(Cl)cc2)nc2ccccc12,1.47
17,O=C(C1Cc2ccccc2CN1S(=O)(=O)c1ccc(F)cc1)N1CCOCC1 (stereo not given),0
18,Fc1ccc2[nH]c3c(NCCN4CCCCC4)ncnc3c2c1,5.88
19,c1ccc(CNc2nc(Nc3ccccc3)nc3ccccc23)cc1,8.21
20,COc1cnc(-c2ccccn2)nc1N1CCCC1,8.43
21,COc1cc2nc(N3CCN(c4nc(N)c5cc(OC)c(OC)cc5n4)CC3)nc(N)c2cc1OC,23.1
22,Cc1ccc(CN2C[C@H](n3cnnn3)C[C@H]2C(=O)NCCc2cccc(Cl)c2)c(C)c1,1.94
23,CCN(CC)CCN(C)C1CCc2c(c(C(=O)N3CCCC3)nn2C)C1 (stereo not given),1.1
24,O=C(Cc1cccs1)N1CCOc2c(cc(-c3csc4ccccc34)cc2OCCc2ccccn2)C1,1.96
25,COc1ccc(CCNC(=S)Nc2ccccc2C)cc1OC,0

row,SMILES,IFI [%]
1,CC(C)CN(C(C)C(=O)NC(CN1CCCC1)c1ccccc1)S(=O)(=O)Cc1ccccc1 (stereo not given),1.96
2,CC(C)CNC(=O)c1cnc(NCCCN2CCCCC2C)nc1NCC(C)C (stereo not given),1.92
3,Cc1ccc(C2C3=C(CC(C)(C)CC3=O)N(Cc3ccc4c(c3)OCO4)C3=C2C(=O)CC(C)(C)C3)cc1,0
4,CCOC(=O)c1c(-c2ccc3c(c2)OCO3)[nH]c2cccc(OC)c2c1=O,0
5,COc1ccc(C(OCC(=O)N2CCSCC2)c2ccncc2Cl)cc1 (stereo not given),0.98
6,Cc1ccc(NC(=O)ON=C2CCCC2)cc1,0
7,COC(=O)C1=C(C)NC2=C(C(=O)CC(c3ccc(OC)c(OC)c3)C2)C1c1ccccc1F (stereo not given),4.76
8,COc1ccc(OC)c(C2C3=C(CC(C)(C)CC3=O)N(c3ccc(Cl)c(Cl)c3)C3=C2C(=O)CC(C)(C)C3)c1,0
9,O=C(Nc1ccon1)c1cc(-c2cccnc2)nc2ccc(Cl)cc12,0
10,Cc1ccc(N2C(=O)C3C(C2=O)C2(c4ccccc4)C(=O)C3(c3ccccc3)C(c3ccccc3)=C2c2ccccc2)cc1[N+](=O)[O-] (stereo not given),0
11,CC(=O)Nc1ccc(S(=O)(=O)NC2C(C)(C)C3CC[C@]2(C)C3)cc1 (stereo not given in full),1.7
12,COc1cc2c(cc1OC)-c1cc3ccc(OC)c(OC)c3c[n+]1CC2,1.61
13,CC(CCCC(C)(C)O)Nc1cncc(-c2ccc(C(N)=O)cc2)n1 (stereo not given),0
14,Cc1ccc2c(c1)c(-c1ccccc1)c(-c1ccccc1)n2CC(O)CN1CCN(Cc2ccccc2)CC1 (stereo not given),3.6
15,CCOC(=O)c1cnc2ccc(OCC)cc2c1NCCCN(CC)CC,8.33
16,O=C(CNC(=O)c1ccccc1)Oc1ccc(Cl)cc1,7.14
17,CN1CCc2c(C#N)c(N3CCCC3)nc(N3CCCC3)c2C1,3.51
18,CN1C(=O)NC(c2cccnc2)C(C(=O)c2cccs2)C1(O)C(F)(F)F (stereo not given),0
19,COc1ccc(C2C(C(=O)OC3CCCCC3)=C(C)Nc3nnnn32)cc1 (stereo not given),0
20,COc1cc(NC(=O)Cn2ccc3ccc([N+](=O)[O-])cc32)cc(OC)c1OC,3.03
21,O=C(Nc1cccc(C(F)(F)F)c1)c1ccc(-c2cccs2)cc1,5.88
22,CCC1=NN2C(=N)/C(=C/c3ccc(OCCOc4ccc(Br)cc4)c(OC)c3)C(=O)N=C2S1,0
23,Cc1cc(C)c2c(c1)-c1c(ssc1=S)C(C)(C)N2C(=O)c1ccccc1,0
24,COc1ccc(Nc2nc(Nc3ccc(OC)cc3)c3ccccc3n2)cc1,7.52
25,COc1ccccc1NC(=O)N(CCC(C)C)C(C)c1nc2ccccc2c(=O)n1-c1ccccc1Cl (stereo not given),0.917

row,SMILES,IFI [%]
1,CC(C)(C)CC(=O)NCc1ccc(OC2CCN(CC(c3ccccc3)c3ccccc3)CC2)cc1,7.04
2,Cn1c(SCCCCNC(=O)c2cc([N+](=O)[O-])cc([N+](=O)[O-])c2)nc(-c2ccccc2)c1-c1ccccc1,1.87
3,CCCc1c(C)nc2ccccc2c1O,1.59
4,COc1ccc(-n2c(SC(C)C)nc3sc4c(c3c2=O)CCN(C)C4)cc1,2.44
5,CC(=O)C(=NNc1cc(C(F)(F)F)cc(C(F)(F)F)c1)C(C)=O,1.45
6,CCCc1c(CC)c(=N)c2ccccc2n1C,7.69
7,COc1ccc([C@@H]2C[C@H](OC(=O)c3ccc4c(c3)OCO4)C(=O)N2C)cc1,0
8,COc1ccc(CN2CCN(C(=O)c3cccnc3)CC2)cc1OC,0
9,Cc1ccc(NC(=O)C2CSC(c3cccc(F)c3)N2C(=O)c2ccc(C(C)(C)C)cc2)cc1 (stereo not given),3.06
10,CCCN(CC(=O)Nc1cc(C(C)(C)C)nn1-c1cccc(C)c1C)C(=O)C(C)(C)C,0.917
11,COc1ccc(Nc2nc(NN=Cc3cccc(I)c3)nc(Nc3ccc([N+](=O)[O-])cc3)n2)cc1,5.81
12,CCC(c1nc2cc(Cl)ccc2c(=O)n1CC)N(CC)C(=O)c1ccc2ccccc2c1 (stereo not given),1.85
13,O=C(c1ccccc1)N1CCc2nc(Cc3ccc(F)cc3Cl)sc2C1,1.39
14,CCCCOC(=O)c1ccc(NC2=C(c3ccc(OC)cc3)C(=O)c3ccccc32)cc1,0
15,Cc1ccc(Cn2c(=N)n(CC(O)c3ccc(Cl)c(Cl)c3)c3ccccc32)cc1 (stereo not given),0
16,CC[n+]1c(C)cc2c([nH]c3ccccc32)c1C,3.03
17,COCCNCC(O)CON=C1c2ccccc2-c2ccccc21 (stereo not given),0
18,CC(Cc1ccsc1)Nc1nc2nonc2nc1N(C)C (stereo not given),0
19,O=C(O)c1c[nH]c2cc(N3CCCCCC3)c(F)cc2c1=O,0
20,Nc1c(Cl)c(Cl)nc(C(Cl)(Cl)Cl)c1Cl,1.39
21,Cc1ccc(C(CCNc2ncnc3c2[nH]c2ccccc23)c2ccco2)cc1 (stereo not given),9.09
22,Cc1ccc(N=C2S/C(=C\c3c(Cl)cccc3Cl)C(=O)N2c2ccc(C)c(C)c2)cc1C,0
23,CCC(c1nc2ccccc2c(=O)n1-c1ccc(Br)cc1)N(CCc1ccccc1)C(=O)c1cccc(C(F)(F)F)c1 (stereo not given),1.87
24,CC1(C)Cc2c(sc(NC(=O)CCl)c2C#N)CO1,8.33
25,CCOC(=O)c1c[nH]c2c(CC)cccc2c1=O,1.59

row,SMILES,IFI [%]
1,COc1ccc2nc(C)cc(Nc3ccc(Br)cc3)c2c1,3.03
2,Cc1ccc(C)c(S(=O)(=O)N=C2C=C(SCC(=O)O)C(=O)c3ccccc32)c1,6.25
3,C=C(Cl)CSc1nnc(CCNC(=O)c2ccc(C)cc2)n1-c1ccc(F)cc1,1.72
4,O=C(Nc1ccc2nc3n(c(=O)c2c1)CCCCC3)C(=O)N1CCN(c2cccc(Cl)c2)CC1,4.35
5,Cc1cccc(CC(=O)N2CCC[C@@H]3CN(C(=O)CCc4cccnc4)CC[C@@H]32)c1,0.98
6,Cc1cc(N2CCCCC2)nc2ccc(NC(=O)c3cccc([N+](=O)[O-])c3)cc12,8.06
7,CCC(Nc1ccc(OC)cc1)=C1C(=O)CC(C)(C)CC1=O,0
8,COc1ccc2nc(-c3ccccc3)cc(O)c2c1,14.2
9,N#Cc1c(N)nc(SCC(=O)c2ccc(Cl)cc2)c(C#N)c1-c1ccco1,0.714
10,CCN(CC)CCCC(C)Nc1ccnc2ccc(-c3ccccc3)cc12 (stereo not given),7.69
11,Fc1ccccc1Nc1nc(NCc2ccccc2)c2ccccc2n1,7.14
12,CC(C)(C)NCC(O)Cn1c2ccc(Br)cc2c2cc(Br)ccc21 (stereo not given),1.63
13,COc1ccc(S(=O)(=O)N=C2C=C(Nc3ccc(O)cc3)C(=O)c3ccccc32)cc1,23.1
14,Cc1ccc(NC(=O)c2c(I)cnn2C)cc1[N+](=O)[O-],2.35
15,COCCCNC(=O)CSCc1nc(-c2ccccc2F)oc1C,0
16,CCOc1ccccc1C1NC(=O)NC(C)=C1C(=O)OCC(F)(F)C(F)(F)F (stereo not given),1.16
17,Cc1cc(Nc2cccc(C(F)(F)F)c2)nc2ccc(NC(=O)c3cncc(Br)c3)cc12,0
18,O=C(c1cnsn1)N1CCCC(COc2cccc(CN3CCC(Cc4ccccc4)CC3)c2)C1 (stereo not given),1.94
19,Nc1ccc(-c2nc3cc(Cc4ccc5[nH]c(-c6ccc(N)cc6)nc5c4)ccc3[nH]2)cc1,10.3
20,OC(CN1CCN(c2ccnc3cc(Cl)ccc23)CC1)CN1CCN(c2ccnc3cc(Cl)ccc23)CC1,6.67
21,COc1ccc2nc3ccccc3c(N)c2c1,0.99
22,CN1CCN(Nc2ccnc3cc4ccccc4cc23)CC1,7.14
23,O=c1oc(-c2ccccc2F)nc2sc3c(c12)CCCC3,1.04
24,COc1ccc2cc(CNCCCO)c(N3CCN(c4ccc(F)cc4)CC3)nc2c1,1
25,C=CCNCc1cc(-c2cc(OC)ccc2OC)ccc1O,0.848
